This is one part of the list. Values were computed here from the reads of four pooled replicates and scatter widely.

In the experiment the target is T1, Pho4 (S. cerevisiae) (UniProt P07270).
T1 sequence: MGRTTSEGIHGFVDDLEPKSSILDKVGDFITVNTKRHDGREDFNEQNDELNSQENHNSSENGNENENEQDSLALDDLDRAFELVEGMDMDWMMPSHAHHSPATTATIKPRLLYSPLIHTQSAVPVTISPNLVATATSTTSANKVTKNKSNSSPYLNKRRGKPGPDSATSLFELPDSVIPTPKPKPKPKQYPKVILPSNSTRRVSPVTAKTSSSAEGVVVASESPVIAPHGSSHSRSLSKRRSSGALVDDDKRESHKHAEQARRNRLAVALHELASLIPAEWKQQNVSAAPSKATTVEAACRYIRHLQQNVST
Kind of experiment: relative binding free energy (BET-seq); higher = weaker binding. The following applies: reference: library average.
In the case of TCTTTCACGTGATATG, the “relative binding free energy” value was determined as 0.26 kcal/mol. The result for GGCTCCACGTGGGAGG reads -0.12 kcal/mol; that for TTAATCACGTGTGTGG, 0.13 kcal/mol.

As to GTTAGCACGTGGCCTG, the “relative binding free energy” value was -0.15 kcal/mol. The value for TTATTCACGTGCGCGG was 0.07 kcal/mol; that for GAAGACACGTGGTGAT was 0.07 kcal/mol. The result for ATAGACACGTGGATGT reads 0.15 kcal/mol; that for TATCGCACGTGAGTTG, -0.03 kcal/mol.

Regarding GGTTGCACGTGGGAGT, the “relative binding free energy” value stood at 0.04 kcal/mol.

As to TTCAGCACGTGGTGAG, the “relative binding free energy” value was -0.14 kcal/mol. The value for AAGGTCACGTGTCAAG was 0.29 kcal/mol. For TGGGCCACGTGAGTTA, the “relative binding free energy” value was determined as 0.14 kcal/mol.

For TGTTGCACGTGTGTCA, the “relative binding free energy” value is -0.03 kcal/mol. The result for TTTGTCACGTGTCAGA reads 0.05 kcal/mol; that for CATGGCACGTGGTCTG, -0.23 kcal/mol; that for GCGGCCACGTGGTTGT, 0.01 kcal/mol. The result for CTATGCACGTGGAGGT reads 0.06 kcal/mol. For TTAGACACGTGTTTGG, the “relative binding free energy” value was -0.03 kcal/mol. TCTTGCACGTGGATTT: the “relative binding free energy” value turned out to be 0.14 kcal/mol. Consider GCTATCACGTGGGATG, for which the “relative binding free energy” value was 0.02 kcal/mol. As for TATTTCACGTGGGGAT, the “relative binding free energy” value stood at 0.3 kcal/mol.

As for TTAATCACGTGAAGGT, the “relative binding free energy” value was 0.32 kcal/mol. In the case of GTTCTCACGTGGTGGC, the “relative binding free energy” value was 0.07 kcal/mol. As to TGGATCACGTGGGGAC, the “relative binding free energy” value was 0.03 kcal/mol.

On to TTGGTCACGTGTGCAT, for which the “relative binding free energy” value amounted to 0.12 kcal/mol. For the sequence GATAGCACGTGGCTTG, the “relative binding free energy” value was -0.09 kcal/mol. Turning to GGACACACGTGGTTTT, the “relative binding free energy” value came out at 0.07 kcal/mol. Take ATAATCACGTGTGAAT: the “relative binding free energy” value stood at 0.12 kcal/mol. On to GGGCTCACGTGGGTAG, for which the “relative binding free energy” value is 0.27 kcal/mol. As to TGGTTCACGTGGGCAC, the “relative binding free energy” value is 0.11 kcal/mol. For the sequence GTGTGCACGTGTTGTC, the “relative binding free energy” value came out at 0.01 kcal/mol.

Consider CAAGTCACGTGTTGTG, for which the “relative binding free energy” value is 0.08 kcal/mol. GTAAACACGTGAGTAG: the “relative binding free energy” value is 0.27 kcal/mol. For CTTTGCACGTGAGTGG, the “relative binding free energy” value came to 0.14 kcal/mol.

Turning to TGTGTCACGTGCACTT, the “relative binding free energy” value came to 0.03 kcal/mol. In the case of GCTATCACGTGAGTGT, the “relative binding free energy” value stood at 0.14 kcal/mol.

Turning to ATGTGCACGTGCTTGT, the “relative binding free energy” value is -0.09 kcal/mol. For GCGAACACGTGGGAGG, the “relative binding free energy” value is -0.08 kcal/mol. The value for GAAGTCACGTGTGTTT was 0.26 kcal/mol; that for TTCATCACGTGTTAAT was 0.05 kcal/mol; that for AGGTCCACGTGGGGTA was -0.12 kcal/mol.

With AATTGCACGTGTAGTC, the “relative binding free energy” value was 0.11 kcal/mol. The value for TAGTGCACGTGCGGTA was -0.09 kcal/mol. The result for GAGTGCACGTGGGCTT reads -0.09 kcal/mol. The value for AGATGCACGTGGTTGC was -0.11 kcal/mol. For GGTTACACGTGTTAAG, the “relative binding free energy” value was 0.13 kcal/mol.

TGCGTCACGTGGATGA: the “relative binding free energy” value is -0.09 kcal/mol.

For GAGGACACGTGAGTGT, the “relative binding free energy” value was 0.27 kcal/mol. Regarding GGTGCCACGTGGTAGC, the “relative binding free energy” value was -0.08 kcal/mol. Turning to TCGTTCACGTGTACGT, the “relative binding free energy” value amounted to 0.29 kcal/mol. The result for TGTTACACGTGTGTGT reads 0.07 kcal/mol; that for TAGTACACGTGGGTAC, -0.1 kcal/mol; that for TAGTCCACGTGGGTGC, 0.01 kcal/mol. Consider TTGGGCACGTGGTTCA, for which the “relative binding free energy” value was -0.11 kcal/mol. Regarding TTGGGCACGTGAGTGC, the “relative binding free energy” value amounted to 0.14 kcal/mol. Regarding CGGCGCACGTGTGTGT, the “relative binding free energy” value was -0.13 kcal/mol.

For GGGAGCACGTGGGCTT, the “relative binding free energy” value was -0.08 kcal/mol.

As to TTTGGCACGTGTCAAT, the “relative binding free energy” value is -0.22 kcal/mol. The result for CGGGTCACGTGGGATT reads 0 kcal/mol.

With ATTATCACGTGTGGCA, the “relative binding free energy” value was determined as 0.19 kcal/mol. Take AATGGCACGTGAGTTA: the “relative binding free energy” value was 0.21 kcal/mol. Turning to CAAGGCACGTGGGTGT, the “relative binding free energy” value is -0.23 kcal/mol. Take TAGGGCACGTGTGCTG: the “relative binding free energy” value is -0.15 kcal/mol. For the sequence ATGGCCACGTGGGGTA, the “relative binding free energy” value was -0.18 kcal/mol.

Consider TGTTTCACGTGACTAG, for which the “relative binding free energy” value turned out to be 0.31 kcal/mol. GGGGGCACGTGATCTG: the “relative binding free energy” value was -0.07 kcal/mol. On to GATTTCACGTGCCGGT, for which the “relative binding free energy” value stood at 0.39 kcal/mol. On to TATGTCACGTGTATGG, for which the “relative binding free energy” value was 0.08 kcal/mol. TGTAACACGTGGGTCG: the “relative binding free energy” value was -0.11 kcal/mol. Take TTTAGCACGTGGGTAT: the “relative binding free energy” value is -0.09 kcal/mol. Take CTTTTCACGTGGTAGG: the “relative binding free energy” value amounted to 0.28 kcal/mol.

In the case of TGTCGCACGTGCTTTT, the “relative binding free energy” value is -0.12 kcal/mol. For GGTAGCACGTGATTGA, the “relative binding free energy” value was 0.14 kcal/mol. For CTGCTCACGTGTGTGG, the “relative binding free energy” value was 0.13 kcal/mol. On to GGGTTCACGTGGATTT, for which the “relative binding free energy” value is 0.33 kcal/mol. In the case of TTTACCACGTGTTAAG, the “relative binding free energy” value is 0.15 kcal/mol. TAGATCACGTGTTTTT: the “relative binding free energy” value stood at 0.22 kcal/mol. TTGGTCACGTGCCTTA: the “relative binding free energy” value amounted to 0.06 kcal/mol. The value for TTCAGCACGTGTTCGT was -0.07 kcal/mol; that for TGCTGCACGTGGAGTG was -0.06 kcal/mol. For TAGCGCACGTGTGTAA, the “relative binding free energy” value is -0.1 kcal/mol. The result for ATTCTCACGTGTGGTG reads 0.13 kcal/mol; that for GTGTACACGTGAGAGT, 0.18 kcal/mol. In the case of TATTGCACGTGCGGTG, the “relative binding free energy” value was -0.1 kcal/mol. Take TTTTGCACGTGGAGAT: the “relative binding free energy” value was -0.06 kcal/mol. The value for TTAGTCACGTGCATGA was 0.03 kcal/mol; that for TGGGACACGTGAGGCA was 0.23 kcal/mol. With TACGTCACGTGTGGAG, the “relative binding free energy” value worked out at 0.18 kcal/mol.

Consider TTTTTCACGTGAAGGA, for which the “relative binding free energy” value amounted to 0.44 kcal/mol. On to AATCGCACGTGTGTAT, for which the “relative binding free energy” value came to 0.15 kcal/mol.

Regarding GGTGGCACGTGGGCGG, the “relative binding free energy” value is -0.19 kcal/mol. As to TACGGCACGTGTGCGG, the “relative binding free energy” value is -0.11 kcal/mol. Take TTGTTCACGTGTATAT: the “relative binding free energy” value worked out at 0.15 kcal/mol.

For the sequence GTGCGCACGTGTGATT, the “relative binding free energy” value came out at 0.08 kcal/mol.

Turning to GATTCCACGTGGTGGG, the “relative binding free energy” value was determined as 0.04 kcal/mol. As to TATATCACGTGGTGGC, the “relative binding free energy” value worked out at 0.06 kcal/mol.

Turning to TGGCGCACGTGCTGTG, the “relative binding free energy” value is -0.24 kcal/mol. Turning to GGTTACACGTGATGGG, the “relative binding free energy” value stood at 0.36 kcal/mol.

CCGGGCACGTGCTTGG: the “relative binding free energy” value is -0.09 kcal/mol. The result for TGTTACACGTGCACGG reads 0.09 kcal/mol. For the sequence CGTTTCACGTGAGGTT, the “relative binding free energy” value stood at 0.38 kcal/mol.

Take AAAGCCACGTGGTGTG: the “relative binding free energy” value is -0.15 kcal/mol.

Take GTTGGCACGTGAGATC: the “relative binding free energy” value amounted to 0.24 kcal/mol. ATTAGCACGTGGGTGT: the “relative binding free energy” value is -0.18 kcal/mol. As to GGACGCACGTGGGGGG, the “relative binding free energy” value was -0.22 kcal/mol.

Regarding TTGCGCACGTGGTACT, the “relative binding free energy” value is -0.11 kcal/mol.

As for GCATTCACGTGGTGGG, the “relative binding free energy” value came out at 0.31 kcal/mol. Consider GCGTTCACGTGGTTGA, for which the “relative binding free energy” value turned out to be 0.33 kcal/mol. Regarding CGGGGCACGTGGTGGA, the “relative binding free energy” value is -0.13 kcal/mol. CTTCACACGTGTTGGG: the “relative binding free energy” value is 0.11 kcal/mol.

Consider TATTGCACGTGCGTTT, for which the “relative binding free energy” value is -0.2 kcal/mol. As for GTTGTCACGTGTTTAA, the “relative binding free energy” value is 0.09 kcal/mol. GTGGACACGTGGAATT: the “relative binding free energy” value is 0.23 kcal/mol. In the case of GTAATCACGTGATAGT, the “relative binding free energy” value was determined as 0.13 kcal/mol. GCTGGCACGTGCGGAG: the “relative binding free energy” value is -0.11 kcal/mol.

Turning to TTGAACACGTGTATGT, the “relative binding free energy” value came to 0.07 kcal/mol. For the sequence GGCGGCACGTGGTCGG, the “relative binding free energy” value is -0.06 kcal/mol.

For TTTGTCACGTGGTGTT, the “relative binding free energy” value turned out to be 0.03 kcal/mol.

For the sequence TTTAGCACGTGAGGTT, the “relative binding free energy” value was found to be 0.11 kcal/mol.

Consider TATTTCACGTGAGCGG, for which the “relative binding free energy” value amounted to 0.45 kcal/mol.

Take TTCGTCACGTGGGCTG: the “relative binding free energy” value was -0.12 kcal/mol.

For the sequence CTAGTCACGTGTAGAG, the “relative binding free energy” value is 0.17 kcal/mol. As for GGTCGCACGTGAATGG, the “relative binding free energy” value stood at 0.25 kcal/mol. As for GCGTTCACGTGTAGTT, the “relative binding free energy” value stood at 0.1 kcal/mol.

For the sequence TGGTCCACGTGGGAGA, the “relative binding free energy” value was found to be 0.04 kcal/mol. On to GTAGGCACGTGTATGC, for which the “relative binding free energy” value is -0.2 kcal/mol. As for CTGTTCACGTGGGGTC, the “relative binding free energy” value worked out at 0.12 kcal/mol. The result for GTGTTCACGTGGGTTC reads 0.36 kcal/mol; that for TGTGTCACGTGCGGCT, -0.04 kcal/mol; that for TTTAGCACGTGGTCGT, -0.19 kcal/mol. In the case of TTTTACACGTGTGAGG, the “relative binding free energy” value stood at 0.13 kcal/mol. For TTATTCACGTGATCAG, the “relative binding free energy” value was 0.28 kcal/mol.

Turning to TGGCTCACGTGGGCTA, the “relative binding free energy” value stood at 0.19 kcal/mol.

Regarding AGGGTCACGTGGAAAA, the “relative binding free energy” value came to 0.26 kcal/mol.

As for ATGTCCACGTGATGTA, the “relative binding free energy” value turned out to be 0.21 kcal/mol. The value for TATAACACGTGTGATT was -0.09 kcal/mol. Regarding ATGGGCACGTGTAGAT, the “relative binding free energy” value was 0.17 kcal/mol.

Regarding ATGGGCACGTGTCGGA, the “relative binding free energy” value was -0.06 kcal/mol. Consider ATTCACACGTGTATGT, for which the “relative binding free energy” value came out at 0.19 kcal/mol. Take TTATGCACGTGTAAAA: the “relative binding free energy” value stood at 0.08 kcal/mol. In the case of ATTTTCACGTGTGAAG, the “relative binding free energy” value is 0.21 kcal/mol. As for TAGTTCACGTGAGGCT, the “relative binding free energy” value is 0.4 kcal/mol.

Regarding ATGGGCACGTGGTGAG, the “relative binding free energy” value is -0.14 kcal/mol. For TTAAGCACGTGGAAGG, the “relative binding free energy” value was -0.04 kcal/mol. CTTAGCACGTGGGTGA: the “relative binding free energy” value is -0.24 kcal/mol. For the sequence TGTAACACGTGGTTTA, the “relative binding free energy” value is 0.08 kcal/mol.

The record behind these values is the BET-seq Pho4 binding data (Le et al. 2018).
